About 5,000 (1.2%) of roughly 410,000 compounds were called active. Inconclusive means that the source gave no clear call. Such entries were picked first, then a sample of the others. The call rests on the fitted dose curve; in most records, active means well fitted inhibition curve with a large enough effect; inconclusive means small, poorly fitted or top-dose-only effect; inactive means no such curve, though single readings can be large or run the other way. Potencies of inconclusive entries are doubtful fits and often do not repeat.
assay: qHTS for Inhibitors of TGF-b; conditions: HepG2 CAGA-GFP TGF-b/SMAD3 reporter, GFP fluorescence, 18 h, TGF-beta stimulated, 500 pg/mL final; series mostly up to 46.1 µM; further: nearly all actives have a fitted effect of over 65% in size
Summary of the method: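 First, reporter cells (HEPG2 CAGA-GFP) rested 2 h at 37 degrees C. Next, compounds were pinned in and TGF-beta added to 500 pg/mL final. After 18 h, GFP was imaged per cell and summed per well.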
Potency means the concentration at half of the fitted maximal effect; tags describe the fitted curve by direction and shape.

Row | Structure (SMILES) | Potency
1 | CCc1ccc(NC(=O)C2CCCN2S(=O)(=O)c2cccc3nsnc23)cc1 (centres undefined) | inconclusive: 15.8 µM [inhibitor, single point]
2 | COc1ccc(Cc2nc3ccc(C(=O)NCCCSC)cc3o2)cc1OC | inactive
3 | Cc1nc(SCC(=O)NCc2ccco2)[nH]c(=O)c1C | inactive
4 | Cc1cc(C)c(C#N)c(SCc2cc3c(cc2Cl)OCO3)n1 | inconclusive: 10 µM [inhibitor, partial curve, poor fit]
5 | CC(C(=O)Nc1ccccc1)N(c1cccc(Cl)c1)S(C)(=O)=O (centres undefined) | inactive
6 | CC(C)N(C(=O)[C@H]1CC(CC(=O)NCCc2ccccn2)C(=O)N2CCc3c([nH]c4ccccc34)[C@]12C)C(C)C (some centres undefined) | inconclusive: 25.1 µM [inhibitor, single point]
7 | Cn1nnnc1SCCCNCc1cc(Cl)ccc1OCc1ccccc1 | inconclusive: 35.5 µM [inhibitor, single point]
8 | CCOc1ccccc1OCCCCCc1c(C)n[nH]c1C | inconclusive: 22.4 µM [inhibitor, single point]
9 | CCOc1c(C(N)=O)c(-c2ccccc2)c2c(=O)[nH]c3ccccc3n12 | inconclusive: 1.12 µM [inhibitor, full curve]
10 | O=C(Nc1cccc2ccccc12)C12CC3CC(C1)CC(n1cnc([N+](=O)[O-])n1)(C3)C2 | inactive
11 | CCCC(=O)Nc1ccc(S(=O)(=O)N2CCCC2)cc1 | inconclusive: 4.47 µM [inhibitor, full curve, poor fit]
12 | CCC1=C(c2ccc(C)cc2)S(=O)(=O)N=C1N1CCC(C(=O)NCCc2cccc(OC)c2)CC1 | inconclusive: 35.5 µM [inhibitor, single point]
13 | CCOC(=O)c1sc(NC(=O)Nc2ccc(Cl)cc2)cc1C | active: 5.62 µM
14 | CCOC(=O)c1c(NC(=O)COc2cccc3c2CCN(CC)C3=O)sc2c1CCC2 | inactive
15 | COc1ccc(/C(O)=C/c2nc3ccc(C(=O)NCCc4cccc(C)c4)cc3[nH]c2=O)cc1OC | inconclusive: 6.31 µM [inhibitor, single point]
16 | COc1ccc(Cl)cc1-c1cc(C(=O)NCC2CCCCC2)[nH]n1 | inconclusive: 35.5 µM [inhibitor, single point]
17 | CCOC(=O)Cc1csc2nc3sc(C)c(C)c3c(=O)n12 | inconclusive: 6.31 µM [inhibitor, single point]
18 | CN1C[C@@H]2C(c3ccc(Cl)nc3)C3(c4ccc(C#N)cc4)CC2(C3)[C@H]1c1ccccc1 (some centres undefined) | inconclusive: 11.2 µM [inhibitor, partial curve, poor fit]
19 | COc1ccc(C2=Nc3ccccc3N(CC(=O)Nc3cccc(C(C)=O)c3)C(=O)C2)cc1 | inconclusive: 25.1 µM [inhibitor, single point]
20 | CCC(C)c1ccccc1NC(=O)COC(=O)c1ccc2[nH]c3c(c2c1)CCCC3 (centres undefined) | inconclusive: 15.8 µM [inhibitor, partial curve, poor fit]
21 | CN(c1cccc(NC(=O)c2ccc(Cl)c(S(=O)(=O)N3CCOCC3)c2)c1)S(C)(=O)=O | inactive
22 | COc1ccc(N2C(=O)NC3CC2(C)Oc2ccccc23)cc1OC (centres undefined) | inconclusive: 0.562 µM [inhibitor, partial curve, poor fit]
23 | N#CCSc1nc2c(c(=O)n1Cc1ccco1)C1(CCCC1)Cc1ccccc1-2 | inconclusive: 31.6 µM [inhibitor, single point]

Row | Structure (SMILES) | Potency
24 | CSc1nc(O)c(Nc2cccc(Cl)c2)c(=O)[nH]1 | inconclusive: 0.112 µM [inhibitor, full curve, poor fit]
25 | Cc1cccc(CN2CCN(Cc3nc4c(s3)CCCC4)CC2CCO)n1 (centres undefined) | inconclusive: 12.6 µM [inhibitor, single point]
26 | CC1(C)Cc2c(c(=S)nc(-c3ccccc3)n2CCO)CO1 | inconclusive: 2.82 µM [inhibitor, single point]
27 | CCS(=O)(=O)Nc1ccc(Cc2ccncc2)cc1 | inconclusive: 35.5 µM [inhibitor, single point]
28 | COc1ccc(CCNC(=O)c2ccc(Cl)cc2Cl)cc1 | inactive
29 | O=C(CCl)N=c1sccn1Cc1cccc2ccccc12 | inconclusive: 12.6 µM [inhibitor, single point]
30 | COc1ccc(/C=C/C(=O)NC(=S)NNC(=O)c2cc(OC)c(OC)c(OC)c2)cc1 | inconclusive: 22.4 µM [inhibitor, single point]
31 | COc1ccc(C(=O)N2CCN(S(=O)(=O)c3ccc(F)cc3)CC2)cc1OC | inactive
32 | CCN(CCCNC(=O)c1ccc(Sc2ccc(Cl)cc2)c(NC(C)=O)c1)c1cccc(C)c1 | inconclusive: 35.5 µM [inhibitor, partial curve, poor fit]
33 | O=C(NC(=S)Nc1ccc(S(=O)(=O)N2CCCCC2)cc1)c1cccs1 | inconclusive: 4.47 µM [inhibitor, full curve, poor fit]
34 | c1ccc(N2CCN(c3ncnc4c3nc3n4CCCCC3)CC2)cc1 | inactive
35 | CCC1(c2ccccc2)NC(=O)N(CC(=O)Nc2ccc(S(=O)(=O)N3CC(C)CC(C)C3)cc2)C1=O (centres undefined) | inconclusive: 28.2 µM [inhibitor, single point]
36 | COc1ccc(CCn2c(O)c(C=Nc3cccc(F)c3)c(=O)[nH]c2=O)cc1OC | inactive
37 | COc1ccc(C(=O)OCCN2CCCCC2)cc1 | inactive
38 | CN(C)C(=O)CSc1ncnc2scc(-c3ccccc3)c12 | inactive
39 | CC1CCN(C(c2cccs2)c2nnnn2Cc2ccccc2)CC1 (centres undefined) | inconclusive: 35.5 µM [inhibitor, single point]
40 | COc1cc(CNc2ccc(C)c(C)c2)cc(OC)c1OC | inconclusive: 8.91 µM [inhibitor, partial curve]
41 | O=C(CSC(=S)N1CCCC1)NCC(=O)Nc1ccc(F)c(F)c1 | inactive
42 | COc1ccc(OCC(=O)N/N=C/C(C)=C/c2ccco2)c(Br)c1 | inconclusive: 35.5 µM [inhibitor, single point]
43 | COc1cccc(/C=C2\Oc3cc(OCC(=O)N4CCCC4)ccc3C2=O)c1OC | inconclusive: 14.1 µM [inhibitor, partial curve, poor fit]
44 | CCCCCCn1c(/C=C/c2ccccc2)nc2ccccc21 | active: 15.8 µM
45 | Cc1ccccc1N1C(=O)c2cccc3cccc(c23)C1=O | inconclusive: 35.5 µM [inhibitor, single point]
46 | Fc1ccc2nc(Nc3nc4c(F)cccc4s3)sc2c1 | inconclusive: 25.1 µM [inhibitor, single point]

Row | Structure (SMILES) | Potency
47 | CC1(Cc2cc(Cl)ccc2C(F)(F)F)C(=O)Nc2cc(F)ccc21 (centres undefined) | inconclusive: 35.5 µM [inhibitor, partial curve, poor fit]
48 | CCCCCc1n[nH]c2c1CCCC2 | inconclusive: 35.5 µM [inhibitor, single point]
49 | CCOC(=O)c1ccc(NC(=O)c2ncn3c2C(=O)N[C@H](C)C3)cc1 | inactive
50 | COc1ccc(C)cc1NCC(=O)Nc1ccc(C(C)(C)C)cc1 | inconclusive: 20 µM [inhibitor, single point]
51 | COc1ccc(C2CC(c3ccccc3)=NN2C(=O)COC(=O)c2nc3nc(C)cc(C)n3n2)cc1 (centres undefined) | inconclusive: 35.5 µM [inhibitor, single point]
52 | Cc1ccc(S(=O)(=O)N(Cc2ccc(F)cc2)Cc2ccco2)cc1 | inconclusive: 22.4 µM [inhibitor, single point]
53 | N#Cc1cc2c(nc1SCc1ccncc1)CCC2 | active: 12.6 µM
54 | CSc1cccc(NC(=O)c2ccc3c(c2)CCCN3S(C)(=O)=O)c1 | inactive
55 | Cc1ccc(S(=O)(=O)Nc2ccc3c(c2)nc(CCN2CCCC2)n3C)cc1 | inconclusive: 15.8 µM [inhibitor, single point]
56 | CC(=O)N[C@@H](CS)C(=O)O | inactive
57 | O=C1NC(=S)N(C(=O)c2ccc(F)cc2)/C1=C/c1ccccc1 | inconclusive: 35.5 µM [inhibitor, single point]
58 | Oc1ccccc1C=NNC(=S)NN=Cc1ccccc1O | inconclusive: 35.5 µM [inhibitor, single point]
59 | CCOc1cc2[nH]c(=O)n(CCCN3CCN(c4ccc(OC)cc4)CC3)c(=O)c2cc1OCC | inactive
60 | Cc1ccc(CNC(=O)CN2C(=O)COc3ccc(S(=O)(=O)N4CCC(C)CC4)cc32)cc1 | inconclusive: 10 µM [inhibitor, partial curve, poor fit]
61 | CC(C)C1CC(CCN)(c2ccccc2)CCO1 (centres undefined) | inactive
62 | CCOC(=O)c1c(-c2ccccc2)nc2ccccn12 | inconclusive: 0.112 µM [inhibitor, full curve, poor fit]
63 | Cc1ccc(C(=O)Nc2cccc(S(=O)(=O)N3CCCCC3)c2)cc1[N+](=O)[O-] | inconclusive: 14.1 µM [inhibitor, partial curve, poor fit]
64 | COc1ccc(S(=O)(=O)N2CCOCC2)cc1NC(=O)COC(=O)c1[nH]c(C)c(C(C)=O)c1C | inactive
65 | CC(=O)c1ccc(Nc2ccc(-c3ccccc3F)nn2)cc1 | inconclusive: 10 µM [inhibitor, partial curve]
66 | O=C(CSc1nc2ccccc2n1Cc1ccccc1)NCc1ccccc1 | inconclusive: 12.6 µM [inhibitor, partial curve, poor fit]
67 | CSc1nnc2n(C)c3c(c(=O)n12)C1(CCCC1)Cc1ccccc1-3 | inactive
68 | Cc1ccc(S(=O)(=O)N(C)C)cc1NC(=O)c1ccc2ccccc2n1 | inactive
69 | COc1ccc(C(O)c2nc(-c3cc(F)cc(Cl)c3)cs2)cc1 (centres undefined) | inconclusive: 35.5 µM [inhibitor, single point]

Reference: PubChem BioAssay AID588855 (National Center for Advancing Translational Sciences (NCATS), 2011)
